Measured values published in the supplement of paper PMC12217912.
Some of the results follow. Sequences were assembled here from the parent chain. Values near 0.05 are background.

B1: TEV protease; numbered along this chain (parent)
chain: MGESLFKGPRDYNPISSSICHLTNESDGHTTSLYGIGFGPFIITNKHLFRRNNGTLVVQSLHGVFKVKDTTTLQQHLVDGRDMIIIRMPKDFPPFPQKLKFREPQREERICLVTTNFQTKSMSSMVSDTSCTFPSGDGIFWKHWIQTKDGQCGSPLVSTRDGFIVGIHSASNFTNTNNYFTSVPKNFMELLTNQEAQQWVSGWRLNADSVLWGGHKVFMVKPEEPFQPVKEATQL

Variants of: B1
Assay: raw area under fraction-flipped curve 0-4 h after induction (AUC4h, not background-subtracted), DNA-recorder readout of cleavage of the substrate (dimensionless); higher = more cleavage of the substrate by the protease variant
Conditions: temperature: 34 °C; time window: 0-4 h after rhamnose induction
Procedure: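 In vivo DNA recorder in E. coli TOP10(DE3) ΔrhaA at 34 °C. Each TEVp single-site mutant (parent TEVp 0) is paired with a single-site variant of the 7-mer TEVs (canonical ENLYFQ|S). The substrate sits between flexible linkers in a Bxb1-sfGFP-TEVs-SsrA fusion, so cleavage stabilises Bxb1 and speeds flipping of a recombination array, read by NGS. The value is the raw area under the fraction-flipped curve over 0-4 h after rhamnose induction (AUC4h), with ≥20 reads per time point. It is not background-subtracted; inactive controls average about 0.047.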
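Note: Bxb1 expression induced with 0.2% (w/v) L-rhamnose at OD600 near 0.5, cultures sampled hourly, flipped fraction per protease–substrate barcode pair counted by paired-end Illumina sequencing.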

| Variant | area with substrate ENLYFDS | area with substrate ENLYFHS | area with substrate ENLYFIS | area with substrate ENLYFNS | area with substrate ENLYFRS | area with substrate ENLYFTS | area with substrate ENLYFVS | area with substrate ENLYFWS | area with substrate ENLYFES | area with substrate ENLYFFS | area with substrate ENLYFGS | area with substrate ENLYFKS | area with substrate ENLYFMS | area with substrate ENLYFPS | area with substrate ENLYFLS | area with substrate ENLYFSS | area with substrate ENLYFYS |
| --- | --- | --- | --- | --- | --- | --- | --- | --- | --- | --- | --- | --- | --- | --- | --- | --- | --- |
| G138V | 0.0771 | 0.0644 | 0.0521 | 0.0794 | 0.101 | 0.0765 | 0.0484 | 0.0573 | – | – | – | – | – | – | – | – | – |
| I139W | 0.0607 | 0.0699 | 0.0536 | – | 0.0635 | 0.0579 | 0.0389 | 0.0655 | 0.0653 | 0.0673 | 0.0734 | 0.0693 | 0.0627 | 0.0526 | – | – | – |
| T147W | 0.0604 | 0.0513 | 0.0576 | – | – | 0.0461 | – | 0.0798 | 0.0626 | 0.0463 | 0.0671 | 0.0626 | 0.0609 | 0.0665 | 0.0595 | 0.0509 | 0.0647 |
| S154F | 0.0649 | – | 0.0541 | 0.0444 | 0.07 | – | – | 0.0562 | – | 0.0731 | – | – | 0.056 | – | 0.0513 | – | – |
| L156G | 0.0482 | – | 0.0586 | – | 0.0406 | 0.0356 | – | – | 0.0476 | 0.0611 | – | 0.0609 | 0.0628 | 0.0628 | – | 0.0654 | – |
| V165A | 0.0584 | 0.05 | 0.0533 | 0.0495 | – | 0.0499 | – | 0.0366 | 0.047 | – | – | 0.0571 | 0.0473 | 0.0434 | – | 0.0592 | 0.0608 |
| S182N | 0.0294 | 0.0569 | 0.0453 | 0.0568 | 0.0457 | 0.0509 | 0.0447 | 0.0707 | 0.0529 | 0.0731 | – | 0.0331 | 0.0654 | 0.0553 | – | – | – |
| M188E | 0.0585 | – | 0.0538 | – | – | 0.0627 | 0.0319 | 0.0452 | – | – | 0.0455 | 0.0579 | – | 0.0668 | 0.0616 | – | – |
| N193T | 0.0571 | 0.0606 | 0.0476 | – | 0.0641 | – | – | 0.0402 | 0.0385 | 0.0447 | – | – | 0.0879 | – | 0.0595 | 0.0627 | 0.0514 |
| A207P | 0.0523 | 0.0509 | – | 0.0374 | – | – | – | 0.0659 | 0.0588 | 0.0742 | – | – | – | – | – | – | 0.0555 |
| S4T | – | – | – | 0.0644 | 0.0504 | 0.0684 | – | – | 0.0798 | 0.0458 | – | 0.0658 | 0.0766 | 0.0437 | – | – | 0.0562 |
| F6Y | – | 0.0499 | – | 0.0624 | – | – | 0.0589 | – | 0.0623 | – | – | – | 0.0436 | – | – | – | 0.0535 |
| I43F | – | 0.0543 | 0.0584 | 0.0409 | – | 0.0499 | 0.0467 | – | 0.0533 | – | – | – | 0.053 | 0.0507 | 0.0662 | – | 0.057 |
| H62W | – | – | 0.0522 | 0.0603 | 0.0722 | 0.0653 | – | 0.0708 | 0.0788 | 0.0713 | 0.0651 | 0.0576 | 0.0711 | 0.0616 | 0.0458 | 0.045 | – |
| T70Q | – | – | 0.0501 | – | – | 0.0858 | – | – | 0.0527 | 0.0644 | 0.0674 | 0.0485 | 0.0629 | 0.0575 | – | – | – |
| T71P | – | – | 0.0659 | 0.0499 | 0.0458 | 0.0686 | – | 0.0757 | 0.0478 | 0.0648 | 0.0597 | 0.0644 | – | – | – | – | – |
| D82R | – | 0.0589 | 0.0674 | – | 0.0556 | – | – | – | 0.0593 | – | – | – | 0.0561 | 0.0555 | – | 0.0666 | – |
| K98M | – | – | 0.0541 | 0.0619 | 0.0595 | 0.0507 | – | 0.0554 | 0.0729 | – | 0.0642 | – | – | 0.0654 | – | 0.0674 | 0.0394 |
| E107H | – | – | 0.0688 | – | 0.0432 | – | 0.0677 | 0.0714 | 0.0702 | 0.0563 | 0.0365 | 0.0701 | 0.0721 | 0.0681 | – | – | – |
| M122A | – | – | 0.0588 | – | 0.0666 | 0.0604 | 0.0564 | 0.0535 | 0.0581 | – | – | 0.0665 | 0.0802 | 0.0485 | – | 0.0709 | 0.0579 |

| Variant | area with substrate ENLYFDS | area with substrate ENLYFHS | area with substrate ENLYFIS | area with substrate ENLYFNS | area with substrate ENLYFRS | area with substrate ENLYFTS | area with substrate ENLYFVS | area with substrate ENLYFWS | area with substrate ENLYFES | area with substrate ENLYFFS | area with substrate ENLYFGS | area with substrate ENLYFKS | area with substrate ENLYFMS | area with substrate ENLYFPS | area with substrate ENLYFLS | area with substrate ENLYFSS | area with substrate ENLYFYS |
| --- | --- | --- | --- | --- | --- | --- | --- | --- | --- | --- | --- | --- | --- | --- | --- | --- | --- |
| T129C | – | – | 0.063 | 0.0354 | – | – | – | 0.057 | 0.0648 | 0.0993 | 0.0746 | 0.0559 | 0.0538 | 0.0586 | – | 0.0704 | 0.0411 |
| S130I | – | – | 0.0455 | 0.0704 | 0.0568 | 0.0643 | 0.061 | 0.0602 | 0.0547 | – | 0.0485 | 0.0677 | 0.0578 | 0.0534 | 0.0445 | 0.0459 | – |
| G138N | – | 0.0366 | 0.0624 | – | 0.0756 | – | – | – | 0.0669 | 0.0505 | 0.0704 | – | – | 0.0656 | – | – | – |
| D149V | – | 0.0699 | – | – | 0.0349 | – | – | – | 0.079 | 0.0689 | – | – | 0.0643 | 0.0577 | – | 0.0728 | – |
| S158A | – | 0.0537 | 0.0351 | – | – | 0.0736 | – | 0.0419 | 0.0471 | 0.0568 | 0.0592 | 0.0664 | 0.0607 | – | – | – | 0.0529 |
| S158I | – | – | 0.0507 | 0.0619 | – | – | 0.0441 | 0.051 | 0.0491 | – | – | 0.0427 | – | 0.0391 | – | – | 0.0512 |
| Y179K | – | 0.0416 | 0.0829 | – | – | – | – | 0.0635 | 0.0522 | – | – | 0.0618 | 0.0487 | 0.0519 | – | 0.0517 | 0.0604 |
| V183N | – | – | 0.054 | – | – | 0.0633 | – | – | 0.0688 | – | – | – | – | – | – | 0.0664 | – |
| L211H | – | – | 0.0641 | 0.061 | 0.0533 | – | – | – | 0.0706 | – | – | 0.0625 | 0.0658 | 0.0554 | 0.0967 | – | – |
| M219Y | – | – | 0.0626 | 0.0467 | – | – | – | – | 0.0777 | – | – | 0.0567 | – | 0.0618 | – | – | – |
| G8Q | – | – | – | – | 0.0549 | 0.0671 | 0.0698 | 0.0362 | – | 0.0459 | – | 0.0633 | 0.105 | – | 0.0719 | – | – |
| Q59F | – | 0.0512 | 0.0525 | 0.0396 | – | 0.0736 | 0.0599 | 0.0537 | – | 0.0727 | 0.0559 | – | 0.0643 | 0.057 | 0.0549 | 0.0542 | – |
| D79A | – | 0.0505 | 0.0767 | – | 0.0591 | 0.0653 | – | – | – | 0.0192 | – | – | 0.0651 | 0.072 | 0.0601 | 0.0749 | – |
| C131D | – | 0.0659 | 0.0596 | – | 0.0495 | – | – | 0.0666 | – | 0.0647 | 0.0467 | 0.0678 | – | 0.0707 | – | – | 0.0493 |
| P155N | – | 0.0523 | 0.045 | 0.0502 | 0.0471 | 0.044 | 0.0286 | – | – | 0.0855 | 0.05 | – | 0.0496 | 0.0635 | – | 0.0443 | 0.0444 |
| N172E | – | – | 0.0477 | – | 0.0715 | 0.0658 | – | 0.0599 | – | 0.0719 | – | 0.0754 | 0.0524 | 0.057 | – | – | 0.0617 |
| F180E | – | 0.0468 | 0.0476 | 0.0376 | 0.05 | 0.034 | – | 0.0518 | – | 0.0585 | – | – | 0.0434 | – | 0.0548 | – | 0.0532 |
| N193G | – | – | 0.039 | 0.0681 | – | – | – | – | – | 0.0947 | 0.0709 | – | – | – | 0.0487 | 0.0662 | 0.0588 |
| P225V | – | 0.0633 | 0.0504 | 0.0671 | 0.0636 | – | – | – | – | 0.0654 | – | – | 0.0778 | – | – | 0.0559 | 0.0537 |
| E189A | – | – | – | – | 0.0609 | 0.0601 | 0.0516 | – | – | – | – | 0.0425 | – | 0.0658 | 0.0452 | – | – |
